For 20 variants, self-cleavage results are on record in the RNAGym collection of RNA variant scans (doi:10.7554/elife.90254).

The source gives no read counts; variants with many changes may rest on few reads.

Sequences and labels used below:
B1: LINE1-full (parent)
chain: UACGUAGGUGGUUUUCCCCUGAUAGUGCUAAGGGGGCCUGGAAGUUUGGACUGGGCAGAGCUCAACACAGCGUGGCAAAGUGGCUGUGGCUAGACUGCCUCUCUGGAUUCCUCGUCACUCAGCAGGGCAUCUCUGAGAGAAAUGCC

Variants of B1 are the subject of this data set. Nature of the data set: self-cleavage, relative activity (ratio to wild type); higher = more cleavage; in vitro, sequencing; the parent is a self-cleaving ribozyme.
As to UACGUAGGUGGUUUUCCCCUUAUAGUGCUAAGGGGGCCUGGAAGUUUGGACUGGGCAGAGCUCAACACUGCGUGGCAAAGUGGCUGCGGCUAGACUGCCCCUCUGGAUUCCUCGUCACUCAGCAGGGCAUCUCUGAGAGAAAUGCC, the self-cleavage was found to be 0.

Turning to UACGUAGGUGGUUUUCCCCUGAUAGUGCUAAGGGGGCCUGGAAGCUUGGACUGGGCAGAGCUCAACACAGCGUGGCAAAGUGGCUGUGGCUAGACUGCCUCUCUGGACUCCUCGUCGCUCAGCAGGGCAUCUCUGAGAGAAAUGCC, the self-cleavage worked out at 0.

Take UACGUAGGUGGUUCUCCCCUGAUAGUGCUAAGGGGGCCUGGAAGUUUGGACUGGGCAGAGCUCAACACAGCGUGGCAAAGGGGCUGUGGCUAGACUGCCUCCCUGGAUUCCUCGUCACUCAGCAGGGCAUCUCUGAGAGAAAUGCC: the self-cleavage worked out at 1.13.

UACGUAGGUGGGUUUCCCCUGAUAGUGCUAAGGGGGCCUGGAAGUUUGGGCUGGGCAGAGCUCAACACAGCUUGGCAAAGUGGCUGUGGCUAGACUGCCUCUCUGGAUUCCUCGUCACUCUGCAGGGCAUCCCUGAGAGUAAUGCC: the self-cleavage was determined as 0.73.

Turning to UACGUAGGAGGUUUUCCCCUGAUAGUGCUAAGGGGGCCUGGAAGCUUGGACUGGACAGAGCUCAACACAGCGUGGCAAGGUGGCUGUGGCUAGACUGCCUCUCUGGAUUCCUCGUCACUCAGCAGGGCAUCUCUGAGAGAAAUGCC, the self-cleavage amounted to 0.25.

With UACGUAGGUGGUUCUCCCCUGAUAGUGCUAAGGGGGCCUGGAAGUUUGGACUGGGCAGAGCUCAACACAGCGUGGCAAAGUGGCUGUGGCUAGACUGCCUCUCUGGAUUCCUCGUCACUCAGCAGGGCGUCACUGAGAGAAAUGCC, the self-cleavage came to 1.84.

Regarding UACGUAGGUGGUUUUCCCCUGAUAGUGCUAAGGGGGCCUGGAAGUUUGGACUGGGCAGAGCUCAACACAGCGUGGCAAAGUGGCUGUGGCUAGACUGCCUCUCUGGAUUCCUCGUCGCCCAGCAGGGCGUCUCUGAGAGAAAUGCC, the self-cleavage came to 0.

Take UACGUAGGUGGUUUUCCCCUGAUAGCGCUAAGGGGGCCUGGAAGUUUGGACUGGGCAGUGCUCAACACAGCGUGGCAAAGUGGCUGUGGCUAGACUGCCUCUCUGGACUCCUCGUCACUCAGCAGGGCAUCUCUGAGAGAAAUGCC: the self-cleavage turned out to be 0.92.

Regarding UACGUAGGUGGUUUUCCCCUGAUAGUGCUAAGGGGGCCUGGGAGUUUGGACUGGGCAGAGCUCAACACAGCGUGGCAAAGUGGCUGUGGCUAGACAGCCUCUCUGGAUUCCUCGUCACUCAGCAGGGCAUCUCUGAGAGGAAUGCC, the self-cleavage was 0.09.

On to AACGUAGGUGGUUUUCCCCCGAUAGUGCUAAGGGUGCCUGGAAGUUAGGACUGGGCAGAGCUCAACACAGCGUGGCAAAGUGGCUGUGGCUAGACUGCCUCCCUGGAUUCCUCGUCACUCAGCAGGGCACCUCUGAGAGAAAUGCC, for which the self-cleavage turned out to be 1.48.

For UACGUAGGUGGUUCCCCCCUGAUAGUGCUAAGGGGGCCUGGAAGUUUGGACUGGGCGGAGCUCAACACAGCGUGGCAAAGUGGCUGUGGCUAGACUGCCUCUCUGGAUUCCUCGUCUCUCAGCAGGGCAUCUCUGAGAGAAAUGCC, the self-cleavage was determined as 0.88.

UACGUAGGUGGUUUUCCCCAGAUAGUGCUAAGGGGGCCUGGAAGUUUGGACAGGGCAGAGCUCAACACAGCGUGGCAAAGUGGCUGUGGCUAGACUGCCUCUCUGGAUUCCUCGUCACUCAGCAGGGCACCUCUGAGAGAAAUGCC: the self-cleavage amounted to 2.16.

With UACGUGGGUGGUUUUCCCCUGAUAGUGCUAAGGGGGCCUGGAAGUUCGGACUGGGCUGAGCUCAACACUGCGUGGCAAAGAGGCUGUGGCUAGACUGCCUCUCUGGAUUCCUCGUCACUCAGCAGGGCAUCUCUGAGAGAAAUGCC, the self-cleavage stood at 0.34.

Turning to UACGUAGGUGGUUUUCCCCUGAUAGUGCUAAGGGAGCCUGGAAGUUUGGACUGGGCAGAGCUCAACACAGCGUGGCAAAGUGGCUGUGGCUAGAUUGCCUCUCUGGACUCCUCGUCACUCAGCAGGGCAUCUCUGAGAGGAAUGCC, the self-cleavage was 0.28.

In the case of UACGUAGGUGGUUUCCGCCUGAUAGUGCUAAGGGGGCCCGGAAGUUUGGACUGGGCAGAGCUCAACACAGCGUGGCAAAGUGGCUGUGGCUAGACUGCCCCUCUGGAUUCCUCGUCACUCAGCAGGGCAUCUCUGAGAGAAAUGCC, the self-cleavage is 0.59.

With UACGUAGGUGGUUUUCCCCUGAUAGUGCUAAGGGGGCCUGGAAGUUUAGACUGGGCAGAGCUCAACACAGCGUGGCAGAGUGGCUGUGGCUAGACUGCCUCUCUGGAUUCCUCGUCACUCGGCAGGGCAUCUCUGAGAGAAAUGCC, the self-cleavage turned out to be 2.22.

In the case of UACGUAGGUGGUUUUCCCCUGAUAGUGCUAAGGGGGCCUGGAAGUUUGGGCUGGGAAGAGCUCAACACAGCGUGGCAAAGUGGCUGUGGCUAGACUGCCUCUCUGGUUUCCUCGUCACUCAGCAGGGCAUCUCUGAGAGAAAUGCC, the self-cleavage was 0.06.

For UACGUAGGUAGUUUUCCCCUGAUAGUGCUAAAGGGGCCUGGAAGUUUGGACUGGGCAGAGCUCAACACAGCGUGGCAAAGUGGCUGUGGCGAGACUGCCUCUCUGGUUUCCUCGUCACUCAGUAGGGCGUCUCUGAGAGAAAUGCC, the self-cleavage was 0.02.

As to UACGUAGGUGGUUUUCCCCCGAUAGCGCUAAGGGGGCCUGGAAGUUUGGACUGGGCAGGGCUCAACACAGCGUGGCUAAGUGGCUGUGGCUAGACUGCCUCUCUGGAUUCCUCGUCACUCAGCAGGGCAUCUCUGAGAGAAACUCC, the self-cleavage came out at 0.14.

On to UACGUAGGUGGAUCUCCCCUGAUAGUGCUAAGGGGGCCUGGAAGUUUGGACUGGGCAGAGCUCAACACAGCGUGGCAAAGUGGCUGUGGCUAGACUGCCUCUCUGGAUUCCUCGUCACUCAGCAGGGCAUCUCUGAGAGAAGUGCC, for which the self-cleavage was found to be 0.5.
